# Measured values as given in PubChem BioAssay AID894 (National Center for Advancing Translational Sciences (NCATS), 2007).
# Several values for one entry are separate records, joined by “and”; a condition that tells them apart may be missing. Identical values can stand only once. The campaign covered roughly 150,000 compounds. About 6,500 (4.3%) were called active. The inconclusive results got no clear call from the source; some entries with a clear call stand among them for comparison. Calls follow the shape of the dose curve; as a rule, active = well fitted inhibition curve with a large enough effect (not every such curve was filed as active); inconclusive = small, poorly fitted or top-dose-only effect, or another doubt; inactive = no such curve, though single readings can be large or run the other way. No potency is given beside an inconclusive call; the fits are too rough.
# Target: 15-hydroxyprostaglandin dehydrogenase [NAD(+)] (Homo sapiens) (UniProt P15428)
# Assay: qHTS Assay for Inhibitors of HPGD (15-Hydroxyprostaglandin Dehydrogenase)
# Settings: purified HPGD, NADH fluorescence kinetic, PGE2 substrate; activity change, negative = inhibition: hits give low values
# Method in brief: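 20 nM HPGD preincubated 15 min at room temperature with compound in 50 mM Tris-HCl pH 8, 0.01% Tween 20. Started with 1 mM NAD+ and 30 uM prostaglandin E2; NADH fluorescence (360/450 nm) read 5 times over 30-s intervals, last minus first.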
# % is scaled to controls: 0 for no effect and ±100 for the full control effect; potency is read from the fitted curve at half-maximal effect; tags tell the direction and shape of the fitted curve.
# Chain of UniProt P15428 (P15428 whole entry, looked up): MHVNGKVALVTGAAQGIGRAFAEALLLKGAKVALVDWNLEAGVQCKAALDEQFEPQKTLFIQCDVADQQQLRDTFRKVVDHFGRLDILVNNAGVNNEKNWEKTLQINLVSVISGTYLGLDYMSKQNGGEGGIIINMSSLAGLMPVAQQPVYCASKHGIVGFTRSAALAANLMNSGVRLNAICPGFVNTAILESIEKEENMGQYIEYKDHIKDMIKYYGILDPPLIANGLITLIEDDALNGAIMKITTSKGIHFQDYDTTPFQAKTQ
Compound,Potency,"activity change, negative = inhibition"
Cc1cc(NCCCn2ccnc2)n2nc(-c3ccc(F)cc3)cc2n1,"inconclusive [inhibitor, partial curve, poor fit]",–
C[N+](C)(C)C/C=C1/COCO1,–,inactive: -6.53%
COc1ccc2c(=O)c(-c3ccccc3)coc2c1,"inconclusive [inhibitor, partial curve]",–
O=[n+]1cc(-c2ccc(Br)cc2)n([O-])c2c1CCC2,–,inactive: -4.26%
CC(=O)Nc1ccc(-c2cc(-c3ccc(NC(C)=O)cc3)nc(-c3ccccc3)n2)cc1,"inconclusive [inhibitor, partial curve]",–
CNC(=O)[C@H](C)[C@H]1C[C@]1(C)[C@H](NC(=O)OCc1ccccc1)c1ccccc1,–,inactive: -11.4%
CN(C)c1ccc(-c2ccc3ncnc(NCc4ccccc4)c3c2)cc1,"inconclusive [inhibitor, partial curve]",–
COc1cc2c(=O)n(Cc3ccccc3)c(=O)n(CC(=O)NCC3CCCO3)c2cc1OC (centres undefined),"inconclusive [inhibitor, single point]",–
CCOC(=O)CC(NC(=O)c1cc2cccc(OC)c2oc1=O)c1cccc([N+](=O)[O-])c1 (centres undefined),"inconclusive [inhibitor, single point]",–
CC(C)Nc1nnc(Sc2ccc(Cl)cc2[N+](=O)[O-])s1,"inconclusive [inhibitor, partial curve]",–
CSc1nc(C)cc(/C=C\c2ccccc2)c1C#N,"inconclusive [inhibitor, partial curve]",–
O=C(COC(=O)/C=C/c1ccc2c(c1)OCO2)Nc1ccc(S(=O)(=O)N2CCCC2)cc1,"inconclusive [inhibitor, partial curve]",–
O=C(Nc1nc(-c2cccs2)cs1)c1ccc(Cl)s1,"inconclusive [inhibitor, partial curve]",–
CCOC(=O)C1Sc2[nH]c(=O)sc2C(c2ccc(Cl)cc2)C1C(=O)OCC (centres undefined),active: 3.98 µM,–
CC[n+]1c(/C=C/N(C)c2ccccc2)oc2ccc(F)cc21,–,inactive: -2.66%
Cc1nc(NCc2ccco2)c(C#N)c2c1COC(C)(C)C2,"inconclusive [inhibitor, single point]",–
COc1ccc(/C=C2\SC(c3ccc(C)cc3)=NC2=O)cc1OC,"inconclusive [inhibitor, single point]",–
COc1ccc2nc(SCc3cccc(C)c3)nc(C)c2c1,"inconclusive [inhibitor, partial curve]",–
Cc1ccc(S(=O)(=O)/C(C#N)=C/c2ccccc2OCc2ccccc2)cc1,"inconclusive [inhibitor, partial curve]",–
CCCCN(CC)CCNC(=O)c1cc2c(=O)n(C)c3ccccc3c2n1C,"inconclusive [inhibitor, partial curve, poor fit]",–
N#CCSc1nnc2ccc3ccccc3n12,"inconclusive [inhibitor, partial curve]",–
CCCCN(C)CCNC(=O)c1c[nH]c2ccc(S(=O)(=O)N(CC)CC)cc2c1=O,"inconclusive [inhibitor, partial curve]",–
O=C(Nc1ncc2c(n1)-c1ccccc1OC2)c1ccccc1Cl,"inconclusive [inhibitor, partial curve]",–

Compound,Potency,"activity change, negative = inhibition"
Cc1ccc(C(=O)N2CCCC2)cc1Br,active: 20 µM,–
O=C1Cc2ccccc2Sc2ccc(Cl)cc21,"inconclusive [inhibitor, partial curve]",–
Cc1cccc(Nc2nc3c(s2)CCCC3)c1,–,inactive: -13.4%
CCCC1(C)Nc2ccccc2-c2nc3ccccc3n21 (centres undefined),"inconclusive [inhibitor, partial curve]",–
CC(C)CN(C(=O)COC(=O)c1ccc2c(c1)NC(=O)CS2)C1CCS(=O)(=O)C1 (centres undefined),"inconclusive [inhibitor, single point]",–
CCCc1nc2ccccc2n1CCc1ccccc1,–,inactive: -10.6%
CCOC(=O)Cn1c2ccccc2c2nc3ccccc3nc21,"inconclusive [inhibitor, partial curve]",–
CN1C(=O)CC(N2CCC(C(N)=O)CC2)C1=O (centres undefined),–,inactive: -3.05%
N#C/C(=C\c1ccc(Cl)cc1)c1n[nH]c(Cn2cncn2)n1,"inconclusive [inhibitor, single point]",–
COc1ccc(O)c(/C=N\NC(=O)CCn2nnc3ccccc32)c1,"inconclusive [inhibitor, partial curve]",–
COc1ccccc1N1CCN(C(=O)CSc2nc3ccccc3[nH]2)CC1,–,inactive: -3.2%
Cc1ccc(S(=O)(=O)NNC(=O)c2sccc2-n2cccc2)cc1,–,inactive: -6.74%
CCOC(=O)c1c(C)oc(NC(=O)COc2ccc(Cl)cc2C)c1C#N,active: 31.6 µM,–
Nc1ccc2nc3n(c(=O)c2c1)CCC3,"inconclusive [inhibitor, partial curve]",–
COc1ccccc1NCc1ccc([N+](=O)[O-])s1,–,inactive: -9.86%
O=C(CSCCSCC(=O)c1ccco1)c1ccco1,"inconclusive [inhibitor, partial curve]",–
COc1ccccc1Nc1ncnc2c1oc1ccccc12,"inconclusive [inhibitor, single point]",–
CCCCOc1cccc(C(=O)NC(=S)Nc2cccc(NC(=O)c3ccccc3Cl)c2)c1,–,inactive: -11.3%
COC(=O)CCC(=O)OC1(C)C(=O)C2=CN(Cc3ccccc3)C(c3ccc(OC)cc3)=CC2=C(Br)C1=O (centres undefined),–,inactive: -3.11%
COc1ccc2cccc(N3CCN(CCNC(=O)c4ccc(F)cc4)CC3)c2c1,"inconclusive [inhibitor, partial curve]",–
CC1Cc2ccccc2N1C(=O)C1CCCN(S(=O)(=O)c2cccc3nsnc23)C1 (centres undefined),–,inactive: -7.32%
COc1ccc2cc(Br)ccc2c1CC(=O)NC1CC(C)(C)NC(C)(C)C1,–,inactive: -14.6%
NNC(=O)c1cccc(COc2cccc(Br)c2)c1,–,inactive: -7.77%

Compound,Potency,"activity change, negative = inhibition"
Cc1cccn2c(=O)c3cc(C(=O)NCCCn4ccnc4)n(C)c3nc12,"inconclusive [inhibitor, full curve]",–
Cc1ccc(-c2cc3cccc[n+]3cc2-c2ccc(C)cc2)cc1,"inconclusive [inhibitor, partial curve]",–
CCCc1ccc(OCc2nc(-c3ccc(NC(=O)c4ccco4)cc3)no2)cc1,"inconclusive [inhibitor, partial curve]",–
CCOC(=O)c1sc2nc(NC(=O)C(C)(C)C)sc2c1C,"inconclusive [inhibitor, partial curve]",–
Cc1cc2cc(CNC(=O)c3cccc([N+](=O)[O-])c3)ccc2n1C,"inconclusive [inhibitor, partial curve]",–
Cc1csc(NC(=O)c2cc([N+](=O)[O-])cc([N+](=O)[O-])c2)n1,"inconclusive [inhibitor, single point]",–
Cc1noc(NS(=O)(=O)c2ccc(NC(=O)CSc3nc4c(cc3C#N)CCCC4)cc2)c1C,active: 28.2 µM,–
c1csc(-c2nc3nc4ccccc4nc3n2Cc2ccc3c(c2)OCO3)c1,"inconclusive [inhibitor, partial curve]",–
Cc1c(=O)n(OCc2ccccc2F)c2ccccc2[n+]1[O-],–,inactive: -3.35%
COc1cc2nc3c4ccccc4n(CC#N)c3nc2cc1OC,"inconclusive [inhibitor, partial curve]",–
O=[N+]([O-])c1ccc(Nc2nc(N/N=C/c3cccc(F)c3)nc(N3CCCC3)n2)cc1,–,inactive: -5.78%
Cc1ccc(C)n1-c1ccc(N2CCOCC2)nc1,"inconclusive [inhibitor, partial curve]",–
FC(F)(F)c1cc(-c2ccc3c(c2)OCO3)nc(NCc2ccco2)n1,"inconclusive [inhibitor, partial curve]",–
O=C(CC1Sc2ncnn2C1=O)Nc1ccccc1 (centres undefined),active: 15.8 µM,–
CCOC(=O)C1=C(C)NC(c2ccccc2)=C(C(=O)OCc2ccc([N+](=O)[O-])cc2)[C@@H]1C#Cc1ccccc1,–,inactive: -14.6%
CCCCNC(=O)CCCCCn1c(=O)[nH]c2cc(OC)c(OC)cc2c1=O,"inconclusive [inhibitor, partial curve]",–
CC(=O)N1[C@H](Cc2ccccc2)C=C[C@]1(C)C(=O)NCc1ccccn1,–,inactive: -12% and inactive: -0.817%
COc1ccc2[nH]c(=O)c(CN(C3CCCCC3)C(c3nnnn3Cc3ccco3)C(C)C)cc2c1 (centres undefined),"inconclusive [inhibitor, partial curve]",–
CCCCn1nc2cc(C(=O)NCc3cc(C(F)(F)F)cc(C(F)(F)F)c3)ccc2c1OCC,"inconclusive [inhibitor, single point]",–
Cn1c(NC(=O)c2ccccc2)c(-c2ccccn2)c(=O)c2ccccc21,–,inactive: -13.4%
CCn1c(SCC(=O)c2ccc(NS(=O)(=O)c3ccccc3)cc2)nnc1-c1cccs1,active: 22.4 µM,–
CCOc1ccc2nc(NS(=O)(=O)c3ccc(NC(C)=O)cc3)sc2c1,"inconclusive [inhibitor, single point]",–
COC(=O)C1=C(C)NC(C)=C(C(=O)OCCSc2ccccc2)[C@@H]1C,"inconclusive [inhibitor, partial curve, poor fit]",–
